Results published in PubChem BioAssay AID686971 (National Center for Advancing Translational Sciences (NCATS), 2013).
The campaign covered roughly 360,000 compounds. About 7,500 (2.1%) were called active. The inconclusive results got no clear call from the source; some entries with a clear call stand among them for comparison. Calls follow the shape of the dose curve; as a rule, active = well fitted cell-killing curve with a large enough effect; inconclusive = small, poorly fitted or top-dose-only effect, or effect the other way, or another doubt; inactive = no such curve, though single readings can be large or run the other way. No potency is given beside an inconclusive call; the fits are too rough.
Potency is read from the fitted curve at half-maximal effect; tags tell the direction and shape of the fitted curve.

Experiment: qHTS for induction of synthetic lethality in tumor cells producing 2HG: qHTS for the HT-1080-IDH1KD cell line;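 as to activity, negative = toxicity: 0% = DMSO wells and -100% = cell-free medium wells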
Conditions: HT-1080 IDH1 knockdown viability, ATP luminescence, 48 h; activity, negative = toxicity: at 46.1 µM (top of the series) unless noted
Method in brief: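 Assay cells: HT-1080 with IDH1 knockdown, 750 per well, RPMI/5% FBS. Exposure: 48 h at 37 °C following 2 h pre-incubation. Read: CellTiter-Glo luminescence; fitted concentration-response, curve class assigned.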
In the case of Clc1ccccc1OCCN1CCCCC1, the activity, negative = toxicity is reported as inconclusive: 30.5%.
With O=C(/C=C/c1cc([N+](=O)[O-])ccc1OC(F)F)Nc1ccc(OC(F)F)cc1 the Potency was inconclusive [cytotoxic, single point].
In the case of NC(=O)c1cc(-c2ccccc2)nc2ccc(Br)cc12, the Potency is reported as “inactive”.
For CC(Oc1ccc2ccc(=O)oc2c1)C(=O)NC1CCN(Cc2ccccc2)CC1 (stereo not drawn), the Potency was “inactive”.
With Cc1cc(NC(=O)c2ccc3c(c2)OCCO3)ccc1NC(=O)c1ccco1 the Potency was inconclusive [cytotoxic, single point].
For C[C@H]1CCCCO[C@H](CN(C)CC2CCCCC2)[C@@H](C)CN([C@@H](C)CO)C(=O)c2cc(NS(=O)(=O)c3ccccc3)ccc2O1, the Potency was inconclusive [cytotoxic, partial curve].
For CNC(=O)COc1coc(CN2CCN(c3ccccc3F)CC2)cc1=O, the Potency was “inactive”.
In the case of O=C(Nc1nc(-c2ccc3c(c2)OCO3)cs1)c1ccncc1, the Potency is reported as inconclusive [cytotoxic, single point].
With CC(NC(=O)C1CCC(CNS(=O)(=O)c2ccccc2)CC1)c1ccccc1 (stereo not drawn) the Potency was “inactive”.
With Cc1cc(S(=O)(=O)Nc2ccc3ccccc3c2)c(C)s1 the Potency was active: 14.1 µM.
For CC1=NNC(=O)/C1=C\c1cn(-c2ccccc2)nc1-c1ccc(Cl)cc1, the Potency was active: 5.8 µM.
For COc1cc(SC)ccc1C(=O)N1CCN(Cc2ccc3c(c2)OCO3)CC1, the Potency was inconclusive [cytotoxic, single point].
In the case of CCN1CCN(CC(=O)Nc2c(OC)cccc2OC)CC1, the Potency is reported as inconclusive [rising, single point].
With CCN(CC)c1ccc(/C=C(\C#N)c2ccccn2)cc1 the Potency was inconclusive [cytotoxic, partial curve].
In the case of COc1ccc(-c2[nH]c(-c3ccc(Cl)cc3)nc2SCC(=O)Nc2nccs2)cc1, the Potency is reported as inconclusive [cytotoxic, partial curve].
In the case of Cc1ccccc1NC(=O)c1cc(C(=O)c2cc(Cl)ccc2O)cn(-c2ccccc2C)c1=O, the Potency is reported as inconclusive [cytotoxic, single point].
For Cc1ccc(C)c(NC(=O)CSc2nc3nc(-c4cccs4)cc(C(F)(F)F)c3c(=O)[nH]2)c1, the Potency was inconclusive [cytotoxic, single point].
In the case of O=C1CCNc2cc3ccccc3cc21, the Potency is reported as active: 16.4 µM.
In the case of CCc1ccc2c(c1)NC(=O)C2(C)Cc1ccc(Cl)s1 (stereo not drawn), the Potency is reported as inconclusive [cytotoxic, single point].
With CCCCCCCCC(c1nc2ccccc2[nH]1)N1CCN=C1c1cc2ccccc2[nH]1 (stereo not drawn) the Potency was inconclusive [cytotoxic, single point].
With Cc1ccc(-c2csc(N/N=C/C=C/c3ccccc3)n2)cc1 the Potency was inconclusive [cytotoxic, single point].
For O=C(COc1ccc2c3c(c(=O)oc2c1)CCCC3)NCCCN1CCOCC1, the Potency was “inactive”.
With CN(C)C(=O)CSc1cccc2cccnc12 the Potency was inconclusive [cytotoxic, partial curve].
With CC(C)CNC(=S)N(Cc1ccco1)Cc1cc2cc3c(cc2[nH]c1=O)OCCO3 the Potency was inconclusive [cytotoxic, single point].
With CC1=CC(C)(C)N2C(=O)C3(C(C#N)=C(N)OC4=C3C(=O)CC(C)(C)C4)c3cc(C)cc1c32 (stereo not drawn) the Potency was inconclusive [cytotoxic, single point].
With COc1nc(/C=C/N(C)C)c([N+](=O)[O-])c(OC)n1 the Potency was inconclusive [cytotoxic, single point].
In the case of FC(F)(Cl)c1nnc2ccc(Cl)nn12, the Potency is reported as inconclusive [cytotoxic, single point].
With Cc1cc(NC(=O)c2ccc3c(c2)OCCO3)no1 the Potency was “inactive”.
With C=CCn1c(-c2ccc(C)cc2)nc2ccccc21 the Potency was inconclusive [cytotoxic, single point].
With COc1cc(CN2CCCCCC2)cc(OC)c1OC the activity, negative = toxicity was inconclusive: 32.2%.
For COc1ccccc1CNS(=O)(=O)c1ccc2c(c1)N(C(C)=O)CC(C)S2 (stereo not drawn), the Potency was inconclusive [cytotoxic, partial curve, poor fit].
With Cc1ccc(Cn2ncc3c(NCCCN4CCOCC4)ncnc32)cc1 the Potency was “inactive”.
With CCc1ccc(NC(=O)c2ccc(OC)c([N+](=O)[O-])c2)cc1 the Potency was “inactive”.
For COc1ccc(C(=O)C2CCCN(Cc3cccn3-c3nccs3)C2)cc1F (stereo not drawn), the Potency was inconclusive [cytotoxic, single point].
In the case of O=C(Nc1nc(-c2ccc(Oc3ccccc3)cc2)cs1)C1=COCCO1, the Potency is reported as inconclusive [cytotoxic, single point].
In the case of CC(C)(C)c1cc(CSC(=S)NC2CCS(=O)(=O)C2)c(Br)c(C(C)(C)C)c1 (stereo not drawn), the Potency is reported as inconclusive [cytotoxic, single point].
In the case of CCN(Cc1ccccc1)C(c1ccc(C)cc1)c1nnnn1C(C)(C)CC (stereo not drawn), the Potency is reported as inconclusive [cytotoxic, single point].
With COc1ccc(NC(=O)c2cc([N+](=O)[O-])ccc2NC(=O)CNCc2ccccn2)c(OC)c1 the Potency was inconclusive [cytotoxic, single point].
With C=CCN(c1ccccc1)S(=O)(=O)c1cccc(C(=O)N(CC)CC(=O)Nc2c(F)cccc2F)c1 the Potency was “inactive”.
For COc1ccc(-c2csc(NC(=S)NC(=O)c3ccc(S(=O)(=O)N(C)C)cc3)n2)cc1OC, the Potency was inconclusive [cytotoxic, single point].
With CCc1c(O)nc(SCC(=O)N(CC)CC)[nH]c1=O the Potency was “inactive”.
For S=C(NCCCN1CCOCC1)N1CCN(c2nc(-c3ccc(Cl)cc3)cs2)CC1, the Potency was inconclusive [cytotoxic, single point].
With O=C(Nc1ccc(-c2nc3c(ccc4ccccc43)o2)cc1)c1ccco1 the Potency was active: 10 µM.
With CCCC[C@@H]1Cc2[nH][nH]c(=O)c2[C@H](c2ccc3ccccc3c2)O1 the Potency was active: 23.1 µM.
With OC1CCC(Nc2ccn3nc(-c4cccc(OCc5ccccc5)c4)cc3n2)CC1 (stereo not drawn) the Potency was inconclusive [cytotoxic, partial curve].
In the case of N#C/C(=C/c1ccc(Sc2nc3ccccc3[nH]2)o1)c1ccccc1F, the Potency is reported as inconclusive [cytotoxic, single point].
For COc1ccc([C@H]2N[C@]3(CCCN(Cc4ccc(C(F)(F)F)cc4)C3=O)[C@H]3C(=O)N(C)C(=O)[C@@H]23)cc1, the Potency was “inactive”.
For CCc1ccc(N2C=C(C(=O)OC)C(c3ccc(OC)cc3)C(C#N)=C2N)cc1 (stereo not drawn), the Potency was inconclusive [cytotoxic, single point].
In the case of O=C(Cn1c(=O)sc2ccccc21)Nc1ccc(O)cc1, the Potency is reported as “inactive”.
For CCc1nc(SCC(=O)N2CC(=O)Nc3ccccc32)c2c(C)c(C)sc2n1, the Potency was “inactive”.
In the case of O=C(O)c1ccc(/C=C2\SC(=S)N(Nc3ccccc3)C2=O)cc1, the Potency is reported as active: 4.61 µM.
For Cn1c(SCC(=O)N2CCCc3ccccc32)nc2cccnc21, the Potency was “inactive”.
For O=C(CSc1c2c(nc3ccc(Cl)cc13)CCCC2)NCc1ccco1, the Potency was inconclusive [cytotoxic, single point].
With CCOc1ccc(N2C(=O)c3cccnc3C2Nc2ccc(Cl)cc2)cc1 (stereo not drawn) the Potency was inconclusive [cytotoxic, single point].
For Cc1cccc(CC(Cc2nc3ccccc3[nH]2)c2nc3ccccc3[nH]2)c1 (stereo not drawn), the Potency was active: 25.9 µM.
In the case of Cc1cccc(N2CCN(C(=O)c3ccc4ncsc4c3)CC2)c1C, the Potency is reported as active: 5.8 µM.
With O=C(CSc1nnc(-c2cccc(F)c2)o1)Nc1nncs1 the Potency was “inactive”.
For COc1ccc(/C=N/n2cnc3c([nH]c4ccc(C)cc43)c2=O)cc1CN1CCCC1, the Potency was “inactive”.
In the case of Cc1ccc(C)c(NS(=O)(=O)c2ccc(-c3cnc(C4CC4)o3)cc2)c1, the Potency is reported as active: 0.164 µM.
For C[C@H](CO)N1C[C@H](C)[C@@H](CN(C)C(=O)Nc2ccc(C(F)(F)F)cc2)Oc2ccc(NS(=O)(=O)c3cn(C)cn3)cc2C1=O, the Potency was “inactive”.
With O=[N+]([O-])c1ccc2c(OCc3nnc(-c4ccccc4Br)o3)ncnc2c1 the Potency was inconclusive [cytotoxic, partial curve, poor fit].
With C/C(=N\NC(=O)c1cccc(Cl)c1)C1C(=O)c2ccccc2C1=O the Potency was active: 8.2 µM.
For CCC(C)NCCOCCOc1ccc(Cl)c2ccccc12 (stereo not drawn), the Potency was active: 20.6 µM.
For CCCCC(=O)Nc1nnc(S(=O)(=O)N2CCCCCC2)s1, the Potency was “inactive”.
In the case of O=C1C=CC(=C(c2ccc(O)cc2)c2ccc(O)cc2)C=C1, the Potency is reported as active: 11.6 µM.
In the case of OC(c1ccccc1)c1nc(-c2ccc(F)c(Cl)c2)cs1 (stereo not drawn), the Potency is reported as inconclusive [cytotoxic, single point].
For Cc1ccc(C2NC(=O)c3ccccc3N2)c(C)c1 (stereo not drawn), the Potency was active: 18.4 µM.
For Cc1cc(=O)[nH]c(SCC(=O)Nc2nonc2C)n1, the Potency was “inactive”.
For COc1cccc(-n2c(SCC(=O)Nc3ccc4c(c3)CCC4)nc3ccccc3c2=O)c1, the Potency was “inactive”.
For Oc1ccc(-c2nc3ccccc3nc2-c2ccc(O)cc2O)c(O)c1, the Potency was inconclusive [cytotoxic, partial curve, poor fit].
For CCn1c(=O)cc(SCC(=O)N2CCN(C3CCCCC3)CC2)c2ccccc21, the Potency was inconclusive [cytotoxic, partial curve, poor fit].
With Cc1ccc(CCNS(=O)(=O)c2ccc3c(c2)NC(=O)CCS3)cc1 the Potency was “inactive”.
In the case of CCSc1ccccc1C(=O)n1nnc2ccccc21, the Potency is reported as inconclusive [cytotoxic, single point].
